A compilation of properties of binary mixtures (doi:10.1021/jp502400z)
The densities may have been worked out from excess volumes.

Assay: xn = mol fraction of the nth substance listed
Conditions: 298.15 K, 101 kPa

CC(=O)[O-].C[NH+](C)C + O
Conditions | mass density [kg/m3]
x1 = 0.0451 | 1011.9
x1 = 0.0651 | 1017
x1 = 0.0978 | 1023.7
x1 = 0.1283 | 1028.3
x1 = 0.1524 | 1031.5
x1 = 0.2133 | 1037.4
x1 = 0.3002 | 1043
x1 = 0.328 | 1044.2
x1 = 0.3943 | 1046.7
x1 = 0.4341 | 1047.8
x1 = 0.4797 | 1048.9
x1 = 0.5325 | 1049.8
x1 = 0.6292 | 1051.2
x1 = 0.7094 | 1051.9
x1 = 0.7556 | 1052.3
x1 = 0.9278 | 1053.4
x1 = 1 | 1053.8

C[NH+](C)C.O=S(=O)([O-])O + O
Conditions | mass density [kg/m3]
x2 = 0 | 1467.6
x2 = 0.1369 | 1457
x2 = 0.1942 | 1451.6
x2 = 0.2919 | 1440.6
x2 = 0.3723 | 1429.4
x2 = 0.4691 | 1412.2
x2 = 0.5219 | 1400.5
x2 = 0.6073 | 1376.8
x2 = 0.6734 | 1352.9
x2 = 0.7012 | 1340.9
x2 = 0.7878 | 1292.7
x2 = 0.8724 | 1220.1
x2 = 0.9027 | 1184.4
x2 = 0.9352 | 1137.1

CC[NH+](CC)CC.O=S(=O)([O-])O + O
Conditions | mass density [kg/m3]
x2 = 0 | 1142.9
x2 = 0.1228 | 1141.2
x2 = 0.2209 | 1139.5
x2 = 0.3679 | 1136.1
x2 = 0.4728 | 1132.6
x2 = 0.5147 | 1130.8
x2 = 0.6613 | 1121.5
x2 = 0.7011 | 1117.7
x2 = 0.7866 | 1106.2
x2 = 0.8075 | 1102.3
x2 = 0.869 | 1086.9
x2 = 0.9091 | 1071.8
x2 = 0.9432 | 1053
x2 = 0.9627 | 1038.5
x2 = 0.9743 | 1027.5

CC[NH2+]CC.O=S(=O)([O-])O + O
Conditions | mass density [kg/m3]
x2 = 0.1212 | 1279.7
x2 = 0.2183 | 1275.9
x2 = 0.2979 | 1272.3
x2 = 0.3644 | 1268.9
x2 = 0.4207 | 1265.3
x2 = 0.5476 | 1253.6
x2 = 0.6578 | 1237.1
x2 = 0.6979 | 1228.8
x2 = 0.7314 | 1220.3
x2 = 0.7841 | 1203.1
x2 = 0.8051 | 1194.5
x2 = 0.8673 | 1161.3
x2 = 0.9079 | 1130
x2 = 0.9233 | 1115.2
x2 = 0.9424 | 1093.9
x2 = 0.9622 | 1066.9
x2 = 0.9741 | 1048.2
